The values that follow come from PubChem BioAssay AID1508623 (National Center for Advancing Translational Sciences (NCATS), 2021).

In all, about 48,000 compounds went through this assay and about 450 (0.94%) were called active. Another 19% or so got no clear call; they are omitted. The call rests on the fitted dose curve; in most records, active means well fitted inhibition curve with a large enough effect; inconclusive means small, poorly fitted or top-dose-only effect; inactive means no such curve, though single readings can be large or run the other way. This is one part of the list.
Potency means the concentration at half of the fitted maximal effect.

This assay can be described thus: Primary qHTS for Identification of Small Molecule Inhibitors of Huntingtin Promoter Activity. Further: nearly all actives have a fitted effect of over 50% in size. Particulars: HEK293 HTT promoter firefly luciferase reporter (activity 0% = vehicle and -100% = no light), 24 h; series mostly up to 57.5 µM; activity change, negative = inhibition: at the top concentration. An outline of the steps: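 Firefly luciferase readout (Dual-Glo, 10 min RT) after 24 h, 37 °C compound exposure (final up to 57.5 uM) of HEK293 reporter cells cultured 24 h beforehand; PTC124 at 50 uM final as control inhibitor; activity scaled vehicle 0%, zero RLU -100%.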
A general note: In qHTS, concentration-response curves come from the screen itself.
On to `CSc1ccc(CCNC(=O)c2cc3c(-c4ccccc4F)nn(C)c3s2)cc1`, for which the “activity change, negative = inhibition” value was inactive: -25.8%.

As for `Cc1cccc(NC(=O)Cn2c(=O)n(CCC(=O)N3CCc4ccccc4C3)c(=O)c3ccccc32)c1`, the “activity change, negative = inhibition” value is inactive: -14.4%.

As for `CCCCc1oc2ccccc2c1C(=O)c1cc(I)c(OCCN(CC)CC)c(I)c1`, the “activity change, negative = inhibition” value was inactive: -17.6%.

For `Cc1cc(C)cc(Nc2nc3c(S(=O)(=O)c4cccc(Cl)c4)nnn3c3ccsc23)c1`, the “activity change, negative = inhibition” value is inactive: -4.56%.

For `CC(=O)Nc1ccc(C(=O)CSc2nnc3ccc4ccccc4n23)cc1`, the “activity change, negative = inhibition” value was inactive: -3.24%.

Regarding `CCOC(=O)c1cc2c(=O)n3ccccc3nc2n(C)c1=NC(=O)c1cc2ccccc2o1`, the “activity change, negative = inhibition” value is inactive: -17.7%.

Regarding `CCOc1ccc(NC(=O)NCCN2CCN(c3ccccc3F)CC2)cc1`, the “activity change, negative = inhibition” value is inactive: -13.3%.

With `Cc1ccc2c(c1)c1c(c(=O)n(-c3ccccc3C)c(=O)n1CC(=O)NCC1CCCO1)n2C` (centres undefined), the “activity change, negative = inhibition” value is inactive: -8.72%.

For `Cc1cc(=O)n2nc(N3CCC(C(=O)Nc4ccc(Br)cc4F)CC3)sc2n1`, the “activity change, negative = inhibition” value was inactive: -12.8%.

Take `Cc1ccc(C)c(NC(=O)CCCN2C(=O)C(c3ccccc3)Oc3cccnc32)c1` (centres undefined): the “activity change, negative = inhibition” value was inactive: -28.8%.

In the case of `CC(C)(C)c1nnc(NS(=O)(=O)c2ccccc2)s1`, the “activity change, negative = inhibition” value was inactive: -6.15%.

For the compound `OC[C@H]1OC(O)C[C@@H](O)[C@H]1O` (some centres undefined), the “activity change, negative = inhibition” value was inactive: 3.16%.

For `Nc1c(C(=O)Nc2ccc(Br)cc2)sc2nc(-c3ccncc3)ccc12`, the “activity change, negative = inhibition” value is inactive: -2.72%.

As to `O=C(CNC(=O)c1ccc(Cl)cc1)OCc1cc(=O)n2nc(C3CCCCC3)sc2n1`, the “activity change, negative = inhibition” value was inactive: -17.1%.

For the compound `COc1ccc(S(=O)(=O)N(CC(=O)Nc2cccnc2)c2ccc(C)cc2)cc1OC`, the “activity change, negative = inhibition” value was inactive: 2.38%.

As for `COc1cc2c(=O)n(CCC(=O)NCC3CCCO3)c(=O)n(CC(=O)Nc3ccc(F)cc3)c2cc1OC` (centres undefined), the “activity change, negative = inhibition” value is inactive: -19.2%.

For the compound `Cc1ccc(O)c(NC(=O)CCS(=O)(=O)c2nc(-c3ccc4c(c3)OCO4)cc(C(F)(F)F)n2)c1`, the “activity change, negative = inhibition” value was inactive: 22.7%.

As for `O=c1[nH]c(=O)n([C@H]2C[C@H](O)[C@@H](CO)O2)cc1I`, the “activity change, negative = inhibition” value was inactive: 14.8%.

With `Cc1ccc(-n2nnc(-c3nsc(NC(=O)c4ccc(C)c(C)c4)n3)c2C)cc1`, the “activity change, negative = inhibition” value is inactive: -29.6%.

Consider `CCc1ccc(CNC(=O)CCn2c(=O)c3cccn3c3ccc(F)cc32)cc1`, for which the “activity change, negative = inhibition” value was inactive: 2.72%.

On to `CCOc1ccccc1CNC(=O)c1cc(-c2ccc(C)c(C)c2)nc2ccccc12`, for which the “activity change, negative = inhibition” value is inactive: -11.7%.

In the case of `CCOc1ccccc1NC(=O)COc1ccc(S(=O)(=O)NC2CCCCC2)cc1`, the “activity change, negative = inhibition” value is inactive: -19.9%.

`O=C(Nc1ccc(F)c(F)c1)C1CCCN1S(=O)(=O)c1cccc2nsnc12` (centres undefined): the “activity change, negative = inhibition” value is inactive: -25.8%.

Take `CN1CCN(c2ccc3nc(-c4c(N)c5c(F)cccc5[nH]c4=O)[nH]c3c2)CC1`: the “activity change, negative = inhibition” value was inactive: -1.92%.

As to `COc1cccc2sc(N3CCN(C(=O)CCS(=O)(=O)c4ccc(F)cc4)CC3)nc12`, the Potency was active: 22.4 µM.

As to `Cc1oc2ncn(C)c(=O)c2c1C(=O)NCCCN(Cc1ccccc1)C(C)C`, the “activity change, negative = inhibition” value was inactive: 5.04%.

For the compound `CCn1c(=O)c2sccc2n2c(CCC(=O)Nc3ccc(OC)c(Cl)c3)nnc12`, the “activity change, negative = inhibition” value was inactive: -1.31%.

Consider `Cc1ccc(C(=O)Nc2nc(-c3ccccc3)ns2)cc1`, for which the “activity change, negative = inhibition” value was inactive: 0.665%.

On to `CC(C)Oc1ccc(CNC(=O)C2CCN(c3nc4ccccc4n(C)c3=O)CC2)cc1`, for which the “activity change, negative = inhibition” value was inactive: 6.92%.

For the compound `CCc1ccc(C2NC(=O)c3[nH]nc(-c4cccc(OC)c4)c32)cc1` (centres undefined), the “activity change, negative = inhibition” value is inactive: -4.25%.

As to `CS(=O)(=O)N1CCc2cc(C(=O)Nc3cccc(F)c3)ccc21`, the “activity change, negative = inhibition” value was inactive: 32.4%.

For the compound `COc1ccccc1CC(=O)Nc1ccc2nc(N3CCC(C)CC3)cc(C)c2c1`, the “activity change, negative = inhibition” value is inactive: -0.501%.

For the compound `Cc1ccc(C)c(Cn2c3ccccc3c3cnn(CC(=O)NC(C)c4ccccc4)c(=O)c32)c1` (centres undefined), the “activity change, negative = inhibition” value is inactive: 5.86%.

As to `CCOC(=O)c1ccc(-c2ccc(/C=C(\C#N)C(=O)Nc3ccc(C)cc3OC)o2)cc1`, the “activity change, negative = inhibition” value was inactive: -9.73%.

With `CCCNC(=O)CN1CCN(c2ncc(NC(=O)c3ccc(Cl)cc3)cc2C(=O)O)CC1`, the “activity change, negative = inhibition” value was inactive: -10.9%.

For the compound `N[C@@H](COP(=O)(O)O)C(=O)O`, the “activity change, negative = inhibition” value is inactive: 1.19% [at 25.2 µM].

Turning to `CCCOc1ccccc1C1Oc2nc(SC)nnc2-c2ccccc2N1C(C)=O` (centres undefined), the “activity change, negative = inhibition” value is inactive: -25.6%.

For `CCCCN1C(=O)C(O)(c2c(C)[nH]c3ccccc23)c2ccccc21` (centres undefined), the “activity change, negative = inhibition” value is inactive: -30.5%.

With `COCCNC(=O)Cn1ncc2c(C)n(Cc3ccc(C)cc3)c(C)c2c1=O`, the “activity change, negative = inhibition” value is inactive: -20.1%.

Take `Cc1ccc(C)c(CNC(=O)c2cnc3sc(N4CCCC4)nn3c2=O)c1`: the “activity change, negative = inhibition” value was inactive: -18.7%.

Consider `CCOc1ccc(C(=O)c2cn(Cc3ccc(F)cc3)c3ccc(F)cc3c2=O)cc1`, for which the “activity change, negative = inhibition” value is inactive: -15.8%.

With `Cc1ccc(CN(Cc2ccco2)C(=O)c2oc3ccc(C)cc3c2C)cc1`, the “activity change, negative = inhibition” value was inactive: -15.7%.

`CSc1ccc(C2c3c(oc4ccccc4c3=O)C(=O)N2CCCN2CCOCC2)cc1` (centres undefined): the “activity change, negative = inhibition” value was inactive: -10.2%.

As for `CC(C)(C)C(=O)OC1=CN(Cc2ccccc2)S(=O)(=O)c2ccccc21`, the “activity change, negative = inhibition” value is inactive: -14%.

On to `CCc1ccc(NC(=O)CSc2nc3ncccc3[nH]2)cc1`, for which the “activity change, negative = inhibition” value is inactive: -17.7%.

Consider `Cc1cccc(N(C)C(=S)Oc2ccc3ccccc3c2)c1`, for which the activity change, negative = inhibition result was “inactive”.

For the compound `CCOc1ccc(/C=C/C(=O)Nc2sc3c(c2C(=O)OC)CCC3)cc1`, the “activity change, negative = inhibition” value was inactive: -15.1%.

As for `COc1ccc(C)cc1NC(=O)Cn1cc(S(=O)(=O)Cc2ccccc2Cl)c2ccccc21`, the “activity change, negative = inhibition” value is inactive: -17.5%.

As for `CCOc1cc2c(cc1OCC)C(c1c(F)cccc1Cl)CC(=O)N2` (centres undefined), the “activity change, negative = inhibition” value was inactive: -25.8%.
